# Measured values from paper PMC4336329 (PLoS ONE, 2015).
# The whole screen tested about 310,000 compounds, of which about 14,000 (4.5%) showed an effect of 50% or more. The effect is printed as a negative number. This is one part of the list.
# Biological target: human ether-à-go-go-related gene (hERG) potassium channel (human, UniProt Q12809)
# Test: primary screen, population patch clamp on CHO cells stably expressing hERG
# 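Further: peak tail current of the secondary pulse compared with the same well before compound.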
# human ether-à-go-go-related gene (hERG) potassium channel, sequence (Q12809 whole entry, looked up): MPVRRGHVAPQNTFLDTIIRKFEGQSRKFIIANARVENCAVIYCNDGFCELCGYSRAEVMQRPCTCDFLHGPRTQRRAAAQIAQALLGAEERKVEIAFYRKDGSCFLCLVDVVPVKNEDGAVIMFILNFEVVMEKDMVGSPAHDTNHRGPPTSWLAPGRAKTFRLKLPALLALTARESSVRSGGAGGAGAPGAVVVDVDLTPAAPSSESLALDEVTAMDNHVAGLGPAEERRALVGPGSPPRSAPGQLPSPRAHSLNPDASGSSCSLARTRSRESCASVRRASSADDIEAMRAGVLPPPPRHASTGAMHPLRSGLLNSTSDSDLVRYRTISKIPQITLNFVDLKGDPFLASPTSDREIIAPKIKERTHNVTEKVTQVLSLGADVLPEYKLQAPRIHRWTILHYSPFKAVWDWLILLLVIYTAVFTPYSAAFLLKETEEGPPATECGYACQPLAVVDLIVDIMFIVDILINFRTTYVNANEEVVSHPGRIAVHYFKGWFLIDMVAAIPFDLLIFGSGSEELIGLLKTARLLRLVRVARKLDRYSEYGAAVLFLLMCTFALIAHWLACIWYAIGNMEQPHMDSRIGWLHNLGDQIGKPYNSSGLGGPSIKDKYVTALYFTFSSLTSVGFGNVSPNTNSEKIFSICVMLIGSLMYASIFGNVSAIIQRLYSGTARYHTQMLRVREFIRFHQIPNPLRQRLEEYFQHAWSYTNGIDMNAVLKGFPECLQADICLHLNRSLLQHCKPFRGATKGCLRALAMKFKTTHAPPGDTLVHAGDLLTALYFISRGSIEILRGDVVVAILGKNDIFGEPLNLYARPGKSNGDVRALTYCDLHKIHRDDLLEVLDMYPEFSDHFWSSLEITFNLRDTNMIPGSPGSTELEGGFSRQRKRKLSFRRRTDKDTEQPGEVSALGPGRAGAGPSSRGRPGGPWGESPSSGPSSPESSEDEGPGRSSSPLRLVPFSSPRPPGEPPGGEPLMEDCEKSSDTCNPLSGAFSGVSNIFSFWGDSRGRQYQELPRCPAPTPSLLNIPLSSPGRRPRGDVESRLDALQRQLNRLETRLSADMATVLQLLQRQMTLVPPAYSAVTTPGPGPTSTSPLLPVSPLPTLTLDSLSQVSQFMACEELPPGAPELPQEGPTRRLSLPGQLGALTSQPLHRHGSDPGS
row,SMILES,"hERG current change (%, negative = inhibition) at 10uM [%]"
1,CC(C)(C)c1ccc(/C=C2\SC(=O)N(CCNC(=O)c3cccc(S(=O)(=O)N4CCOCC4)c3)C2=O)cc1,27.5
2,CC(=O)Nc1ccccc1-c1nc2ccccc2nc1OCC(=O)c1ccc(Cl)cc1,5.41
3,Cc1ccc(NC(=O)c2ccco2)c(NC(=O)CN2C(=O)c3ccccc3C2=O)c1,-1.76
4,COc1ccc(C)cc1NC(=O)CCCN1C(=O)C2CC=CCC2C1=O (stereo not shown),-9.54
5,O=C(CCCC(=O)NCC1CCCO1)NCC1CCCO1 (stereo not shown),1.79
6,CCOc1ccccc1C(=O)NCC(=O)N(C)Cc1cccnc1,-3.07
7,COc1ccc(NS(=O)(=O)c2cc(S(C)(=O)=O)ccc2C)cc1,9.03
8,Cc1ccc(C(=O)c2cn(-c3ccc(F)c(Cl)c3)nn2)cc1,-13.6
9,O=C(Nc1ccc(S(=O)(=O)NCCc2ccccc2)cc1)c1ccc(Br)o1,8.63
10,CCC(C)(C)NC(=O)C1CCCN1C(=O)NC1CCCCC1 (stereo not shown),19.6
11,COc1cccc(CNCCN2CCOCC2)c1OC,-2.63
12,CC1=[N+](CC(=O)c2ccccc2)CCn2cccc21.[Br-],13.9
13,C=CCc1cc(OC)ccc1OCCCCn1cncn1.O=C(O)C(=O)O,6.98
14,CCC(C)NC(=O)Cc1c(C)c2cc3c(cc2oc1=O)OC(C)(C)CC3 (stereo not shown),18.9
15,COC(c1ccccc1)c1nnc(CCC(=O)N2CCN(Cc3cccs3)CC2)o1 (stereo not shown),2.91
16,CCn1c(=O)n(CC)c2cc(N3CCCC3)c(NC(=O)c3ccccc3F)cc21,1.45
17,CC(C)Nc1nc(Cl)nc(NCCOc2ccccc2)n1,10.4
18,O=C(O)Cc1ccc(NC(=O)C2CCCCC2C(=O)O)cc1 (stereo not shown),21.6
19,CCN(CC)CCCNC(=S)Nc1ccc(Br)cc1,-53.2
20,COC(=O)c1ccc(C(=O)NC(=S)Nc2nc3c(s2)CC(C)CC3)cc1 (stereo not shown),2.73
21,CC(=O)OC1COC(N2CCc3cc(Br)c([N+](=O)[O-])cc32)C(OC(C)=O)C1OC(C)=O (stereo not shown),5.8
22,OC(C#CCCN1CCCCC1)(c1ccccc1)c1ccccc1,-53.8

row,SMILES,"hERG current change (%, negative = inhibition) at 10uM [%]"
1,N#Cc1ccc(NC(=O)CN2CCCCCC2)cc1Cl,-21.3
2,CCOc1ccc(C(=O)Nc2cc(-c3nc4ccccc4[nH]3)ccc2C)cc1[N+](=O)[O-],-34.8
3,CCOc1nnnc2c1sc1nc(N3CCOCC3)c3c(c12)CCCC3,-3.1
4,COc1ccc(N(CC(=O)Nc2ccccc2C)S(=O)(=O)c2c(C)[nH]c(=O)[nH]c2=O)cc1,16
5,CCCCn1c(N)c(N(CCOC)C(=O)c2ccc(F)c(S(=O)(=O)N3CCOCC3)c2)c(=O)[nH]c1=O,3.51
6,CC(NC(=O)C1CCCN(S(=O)(=O)c2cccc3nonc23)C1)c1ccccc1 (stereo not shown),-29.9
7,COCCCN(C(=S)NC(=O)c1ccc(Br)cc1)c1c(N)n(Cc2ccccc2)c(=O)[nH]c1=O,13.2
8,CCOC(=O)c1ccc(NCc2nc3ccccc3n2C)cc1,-30.5
9,C=CCn1c(SCC(=O)c2ccc(OC)cc2)nnc1C(C)NC(=O)c1cccs1 (stereo not shown),-27.6
10,CCCCN(C)CCNC(=O)C(=O)c1c(C)[nH]c2ccccc12,-16.9
11,Fc1ccc(NC(=S)NCc2ccccn2)cc1,16.1
12,O=C(CCNC(=O)Cn1ccc2ccccc2c1=O)NCCN1CCN(c2ccccc2F)CC1,6.8
13,Cc1ccc(C2NC(=NCc3ccccc3)Nc3nc(C)cc(=O)n32)cc1 (stereo not shown),6.16
14,CC(NC(=O)COC(=O)C1CCC1)c1ccccc1 (stereo not shown),0.753
15,COc1ccc(Nc2nc(OC)nc(N3CCOCC3)n2)cc1,-21.1
16,CNC(=O)c1c(C)[nH]c(=S)c(C#N)c1-c1ccco1,11.4
17,Cc1c2cnn(CC(=O)NCc3ccccn3)c(=O)c2c(C)n1Cc1ccccc1,-8.42
18,CCOC(=O)CNC(=O)C1(c2ccccc2)CCCC1,8.68
19,COc1cc(Br)cc(/C=N/NC(=O)Cc2ccccc2)c1O,9.76
20,O=C(CO/N=C/c1ccc(Cl)cc1Cl)NNC(=O)c1cccc(Cl)c1,18.2
21,O=[N+]([O-])c1ccc(/C=N/n2cnc3ccccc32)s1,-14.2
